# Experimental data from the supplement of paper PMC8728848.
# This is one part of the list.
# Columns and labels:
# Experiment in all cases: glycan array binding signal (z-score within array); higher = stronger binding
# Conditions in all cases: glycan notation: IUPAC condensed, linker removed
# [1] = molecular target: Gal(a1-6)Glc
# Procedure, shortened: (§1)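 The binding signal is a Z-score computed within each array and averaged over linkers. Arrays of the same protein sequence at different concentrations or buffers were also averaged together. Data originate from 3228 arrays in the Consortium for Functional Glycomics database, kept only where the protein sequence was available.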
# [2] = molecular target: Gal(b1-2)Gal
# Procedure, shortened: as §1
# [3] = molecular target: Gal(b1-3)Gal
# Procedure, shortened: as §1
# [4] = molecular target: Gal(b1-3)Gal(b1-4)GlcNAc
# Procedure, shortened: as §1
# [5] = molecular target: Gal(b1-3)GalNAc
# Procedure, shortened: as §1
# [6] = molecular target: Gal(b1-3)GalNAc(a1-3)[Fuc(a1-2)]Gal(b1-4)Glc
# Procedure, shortened: as §1
# [7] = molecular target: Gal(b1-3)GalNAc(a1-3)[Fuc(a1-2)]Gal(b1-4)GlcNAc
# Procedure, shortened: as §1
# [8] = molecular target: Gal(b1-3)GalNAc(b1-3)Gal
# Procedure, shortened: as §1
# [9] = molecular target: Gal(b1-3)GalNAc(b1-3)Gal(a1-4)Gal(b1-4)Glc
# Procedure, shortened: as §1
# [10] = molecular target: Gal(b1-3)GalNAc(b1-3)Gal(b1-4)Glc
# Procedure, shortened: as §1
# [11] = molecular target: Gal(b1-3)GalNAc(b1-3)Gal(b1-4)GlcNAc
# Procedure, shortened: as §1
# [12] = molecular target: Gal(b1-3)GalNAc(b1-4)Gal(b1-4)Glc
# Procedure, shortened: as §1
# [13] = molecular target: Gal(b1-3)GalNAc(b1-4)[Neu5Ac(a2-3)]Gal(b1-4)Glc
# Procedure, shortened: as §1
# [14] = molecular target: Gal(b1-3)GlcNAc
# Procedure, shortened: as §1
# [15] = molecular target: Gal(b1-3)GlcNAc(a1-3)Gal(b1-4)GlcNAc
# Procedure, shortened: as §1
# [16] = molecular target: Gal(b1-3)GlcNAc(a1-6)Gal(b1-4)GlcNAc
# Procedure, shortened: as §1
# [17] = molecular target: Gal(b1-3)GlcNAc(b1-2)Man
# Procedure, shortened: as §1
# [18] = molecular target: Gal(b1-3)GlcNAc(b1-2)Man(a1-3)[Gal(b1-3)GlcNAc(b1-2)Man(a1-6)]Man(b1-4)GlcNAc(b1-4)GlcNAc
# Procedure, shortened: as §1
# [19] = molecular target: Gal(b1-3)GlcNAc(b1-2)Man(a1-3)[Gal(b1-3)GlcNAc(b1-2)Man(a1-6)]Man(b1-4)GlcNAc(b1-4)[Fuc(a1-6)]GlcNAc
# Procedure, shortened: as §1
# [20] = molecular target: Gal(b1-3)GlcNAc(b1-2)Man(a1-3)[GlcNAc(b1-4)][Gal(b1-3)GlcNAc(b1-2)Man(a1-6)]Man(b1-4)GlcNAc(b1-4)GlcNAc
# Procedure, shortened: as §1
# [21] = molecular target: Gal(b1-3)GlcNAc(b1-2)[Gal(b1-3)GlcNAc(b1-6)]Man(a1-6)[Gal(b1-3)GlcNAc(b1-2)Man(a1-3)]Man(b1-4)GlcNAc(b1-4)GlcNAc
# Procedure, shortened: as §1
# [22] = molecular target: Gal(b1-3)GlcNAc(b1-3)Gal(b1-3)GlcNAc
# Procedure, shortened: as §1
# [23] = molecular target: Gal(b1-3)GlcNAc(b1-3)Gal(b1-4)Glc
# Procedure, shortened: as §1
# [24] = molecular target: Gal(b1-3)GlcNAc(b1-3)Gal(b1-4)GlcNAc
# Procedure, shortened: as §1
# [25] = molecular target: Gal(b1-3)GlcNAc(b1-3)Gal(b1-4)GlcNAc(b1-2)Man(a1-3)[Gal(b1-3)GlcNAc(b1-3)Gal(b1-4)GlcNAc(b1-2)Man(a1-6)]Man(b1-4)GlcNAc(b1-4)GlcNAc
# Procedure, shortened: as §1
# [26] = molecular target: Gal(b1-3)GlcNAc(b1-3)Gal(b1-4)GlcNAc(b1-2)[Gal(b1-3)GlcNAc(b1-3)Gal(b1-4)GlcNAc(b1-6)]Man(a1-6)[Gal(b1-3)GlcNAc(b1-3)Gal(b1-4)GlcNAc(b1-2)Man(a1-3)]Man(b1-4)GlcNAc(b1-4)[Fuc(a1-6)]GlcNAc
# Procedure, shortened: as §1
# [27] = molecular target: Gal(b1-3)GlcNAc(b1-3)Gal(b1-4)GlcNAc(b1-3)Gal(b1-4)GlcNAc(b1-2)[Gal(b1-3)GlcNAc(b1-3)Gal(b1-4)GlcNAc(b1-3)Gal(b1-4)GlcNAc(b1-6)]Man(a1-6)[Gal(b1-3)GlcNAc(b1-3)Gal(b1-4)GlcNAc(b1-3)Gal(b1-4)GlcNAc(b1-2)Man(a1-3)]Man(b1-4)GlcNAc(b1-4)[Fuc(a1-6)]GlcNAc
# Procedure, shortened: as §1
# [28] = molecular target: Gal(b1-3)GlcNAc(b1-3)Gal(b1-4)GlcNAc(b1-6)[Gal(b1-3)GlcNAc(b1-3)]Gal(b1-4)Glc
# Procedure, shortened: as §1
# [29] = molecular target: Gal(b1-3)GlcNAc(b1-3)Gal(b1-4)[Fuc(a1-3)]GlcNAc
# Procedure, shortened: as §1
# [30] = molecular target: Gal(b1-3)GlcNAc(b1-3)Gal(b1-4)[Fuc(a1-3)]GlcNAc(b1-6)[Gal(b1-3)GlcNAc(b1-3)]Gal(b1-4)Glc
# Procedure, shortened: as §1
# [31] = molecular target: Gal(b1-3)GlcNAc(b1-3)GalNAc
# Procedure, shortened: as §1
# [32] = molecular target: Gal(b1-3)GlcNAc(b1-6)Gal(b1-4)GlcNAc
# Procedure, shortened: as §1
# [33] = molecular target: Gal(b1-3)GlcNAc(b1-6)GalNAc
# Procedure, shortened: as §1
# [34] = molecular target: Gal(b1-3)GlcNAc(b1-6)[Gal(b1-3)]GalNAc
# Procedure, shortened: as §1
# [35] = molecular target: Gal(b1-3)GlcNAc6S
# Procedure, shortened: as §1
# [36] = molecular target: Gal(b1-3)[Fuc(a1-4)]GlcNAc
# Procedure, shortened: as §1
# [37] = molecular target: Gal(b1-3)[Fuc(a1-4)]GlcNAc(b1-2)Man
# Procedure, shortened: as §1
# [38] = molecular target: Gal(b1-3)[Fuc(a1-4)]GlcNAc(b1-2)Man(a1-3)[Gal(b1-3)[Fuc(a1-4)]GlcNAc(b1-2)Man(a1-6)]Man(b1-4)GlcNAc(b1-4)[Fuc(a1-6)]GlcNAc
# Procedure, shortened: as §1
# [39] = molecular target: Gal(b1-3)[Fuc(a1-4)]GlcNAc(b1-3)Gal(b1-3)[Fuc(a1-4)]GlcNAc
# Procedure, shortened: as §1
# [40] = molecular target: Gal(b1-3)[Fuc(a1-4)]GlcNAc(b1-3)Gal(b1-4)GlcNAc
# Procedure, shortened: as §1
# [41] = molecular target: Gal(b1-3)[Fuc(a1-4)]GlcNAc(b1-3)Gal(b1-4)[Fuc(a1-3)]GlcNAc
# Procedure, shortened: as §1
# [42] = molecular target: Gal(b1-3)[Fuc(a1-4)]GlcNAc(b1-6)GalNAc
# Procedure, shortened: as §1
# [43] = molecular target: Gal(b1-3)[GlcNAc(b1-6)]GalNAc
# Procedure, shortened: as §1
# [44] = molecular target: Gal(b1-3)[GlcNAc(b1-6)]GlcNAc
# Procedure, shortened: as §1
# [45] = molecular target: Gal(b1-3)[Neu5Ac(a2-6)]GalNAc
# Procedure, shortened: as §1
binder,measurement,setting,value
EEA (Euonymus europaeus) (protein) MASTIIATGPTYRVYCRAAPNYNMIVGKGVAFLAPIDETNELQYWYKDDTYSYIKDEAGLPAFSLVNKATGLTLKHSNHHPVPVKLVTYNPNVVDESVLWSQADDRGDGYSAIRSLTNPASHLEAAPLNDWSYNGAIIMGGVWIDAYNQQWKIEPHTG,glycan array binding signal (z-score),[1],-0.205
same,glycan array binding signal (z-score),[2],-0.172
same,glycan array binding signal (z-score),[3],-0.203
same,glycan array binding signal (z-score),[4],-0.16
same,glycan array binding signal (z-score),[5],0.01
same,glycan array binding signal (z-score),[6],-0.228
same,glycan array binding signal (z-score),[7],-0.142
same,glycan array binding signal (z-score),[8],-0.189
same,glycan array binding signal (z-score),[9],-0.24
same,glycan array binding signal (z-score),[10],-0.329
same,glycan array binding signal (z-score),[11],-0.501
same,glycan array binding signal (z-score),[12],-0.213
same,glycan array binding signal (z-score),[13],-0.241
same,glycan array binding signal (z-score),[14],-0.193
same,glycan array binding signal (z-score),[15],-0.189
same,glycan array binding signal (z-score),[16],-0.083
same,glycan array binding signal (z-score),[17],-0.143
same,glycan array binding signal (z-score),[18],-0.157
same,glycan array binding signal (z-score),[19],-0.194
same,glycan array binding signal (z-score),[20],-0.234
same,glycan array binding signal (z-score),[21],-0.219
same,glycan array binding signal (z-score),[22],-0.138
same,glycan array binding signal (z-score),[23],-0.273
same,glycan array binding signal (z-score),[24],-0.237
same,glycan array binding signal (z-score),[25],-0.243
same,glycan array binding signal (z-score),[26],0.041
same,glycan array binding signal (z-score),[27],-0.049
same,glycan array binding signal (z-score),[28],-0.258
same,glycan array binding signal (z-score),[29],-0.197
same,glycan array binding signal (z-score),[30],-0.274
same,glycan array binding signal (z-score),[31],-0.173
same,glycan array binding signal (z-score),[32],-0.231
same,glycan array binding signal (z-score),[33],-0.212
same,glycan array binding signal (z-score),[34],-0.187
same,glycan array binding signal (z-score),[35],-0.224
same,glycan array binding signal (z-score),[36],-0.228
same,glycan array binding signal (z-score),[37],-0.125
same,glycan array binding signal (z-score),[38],-0.037
same,glycan array binding signal (z-score),[39],-0.168
same,glycan array binding signal (z-score),[40],-0.258
same,glycan array binding signal (z-score),[41],-0.072
same,glycan array binding signal (z-score),[42],-0.142
same,glycan array binding signal (z-score),[43],-0.15
same,glycan array binding signal (z-score),[44],-0.229
same,glycan array binding signal (z-score),[45],-0.159
